# Reference: article PMC4336329 (PLoS ONE, 2015)
# Out of some 310,000 compounds screened, about 2,200 (0.71%) showed an effect of 50% or more. Effects have a minus sign here. The list shows a part of the results.
# Biological target: human ether-à-go-go-related gene (hERG) potassium channel (human, UniProt Q12809)
# Experiment: primary screen, population patch clamp on CHO cells stably expressing hERG
# Sequence of human ether-à-go-go-related gene (hERG) potassium channel (Q12809 whole entry, looked up): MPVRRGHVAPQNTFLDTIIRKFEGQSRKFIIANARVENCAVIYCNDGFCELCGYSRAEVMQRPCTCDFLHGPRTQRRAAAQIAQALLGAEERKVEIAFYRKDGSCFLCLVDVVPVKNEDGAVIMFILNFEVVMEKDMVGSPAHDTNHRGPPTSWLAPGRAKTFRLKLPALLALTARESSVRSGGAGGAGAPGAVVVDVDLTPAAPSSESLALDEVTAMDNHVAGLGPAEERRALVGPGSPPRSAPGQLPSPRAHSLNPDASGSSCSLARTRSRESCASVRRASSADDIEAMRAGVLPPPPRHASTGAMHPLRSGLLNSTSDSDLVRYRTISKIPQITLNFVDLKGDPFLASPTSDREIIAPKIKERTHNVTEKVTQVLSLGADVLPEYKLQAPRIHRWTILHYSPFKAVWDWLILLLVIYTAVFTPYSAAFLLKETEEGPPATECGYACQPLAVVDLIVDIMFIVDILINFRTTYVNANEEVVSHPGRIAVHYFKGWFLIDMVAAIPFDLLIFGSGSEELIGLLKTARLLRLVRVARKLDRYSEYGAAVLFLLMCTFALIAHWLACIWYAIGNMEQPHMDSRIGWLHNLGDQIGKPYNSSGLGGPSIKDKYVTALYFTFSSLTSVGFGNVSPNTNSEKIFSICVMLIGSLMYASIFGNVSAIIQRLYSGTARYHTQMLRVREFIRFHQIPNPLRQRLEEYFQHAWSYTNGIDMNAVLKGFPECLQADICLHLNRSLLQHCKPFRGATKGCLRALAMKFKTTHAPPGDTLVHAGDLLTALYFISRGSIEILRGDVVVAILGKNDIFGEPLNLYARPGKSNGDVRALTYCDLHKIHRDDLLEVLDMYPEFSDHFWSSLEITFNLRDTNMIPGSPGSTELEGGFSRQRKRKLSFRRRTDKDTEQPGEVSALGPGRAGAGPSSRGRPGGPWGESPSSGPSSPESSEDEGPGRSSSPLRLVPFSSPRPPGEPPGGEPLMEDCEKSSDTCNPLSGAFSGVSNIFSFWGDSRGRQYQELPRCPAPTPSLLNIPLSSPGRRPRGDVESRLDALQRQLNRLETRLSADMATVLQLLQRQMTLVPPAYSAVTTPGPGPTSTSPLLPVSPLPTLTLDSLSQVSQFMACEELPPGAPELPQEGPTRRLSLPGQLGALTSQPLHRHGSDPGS
row,Compound,"hERG current change (%, negative = inhibition) at 1uM [%]"
1,CCC(C)(C(=O)NC1CCCCC1)N(CC1CCCO1)C(=O)Cc1cccs1 (stereo not drawn),11.2
2,CCOc1ccc2nc(NC(=O)CSc3nc4cccnc4n3C)sc2c1,12.6
3,CN(C)c1ccc(C=NC(CO)C(O)c2ccc([N+](=O)[O-])cc2)cc1 (stereo not drawn),6.82
4,N/C(CC(=O)Nc1ccc(F)cc1F)=N\OC(=O)c1cccs1,9.63
5,CN(C)c1ccc(N=Cc2cccn2C)cc1,18.1
6,Cc1ccc(S(=O)(=O)N(C)c2ccc(C(=O)N3CCN(Cc4ccc5c(c4)OCO5)CC3)cc2)cc1,-0.88
7,O=C(Nc1ccccc1)C1=C(N2CCOCC2)/C(=C/c2cccnc2)CC1,-7.8
8,O=C(O)c1ccccc1C(=O)NCC(O)COCC1CC=CCC1 (stereo not drawn),-12.5
9,O=C1Cc2cc(S(=O)(=O)Nc3ccc(F)cc3Cl)ccc2N1,-2.76
10,COc1ccc(C(=O)Nc2ccc3oc(-c4cccc(Cl)c4)cc(=O)c3c2O)cc1,6.78
11,COc1cc(OC)cc(-c2c(-c3ccc(F)cc3)c3cc(-c4ccc5cc[nH]c5c4)ccc3n2C)c1,8.92
12,CC(=O)Nc1ccc(NC(=O)c2oc3cc(C)c(C)cc3c2C)cc1,8.62
13,S=c1nc2ccccc2c2nc(-c3ccccc3Br)[nH]n12,13.4
14,Cc1cc(N2CCN(C3CCCCC3)CC2)nc2cccc(O)c12,-11.9
15,CC1(C)CC(CC(=O)Nc2ccccc2[N+](=O)[O-])C(=O)O1 (stereo not drawn),12.1
16,COCc1c(Br)c(C)nc2sc3c(=O)[nH]nnc3c12,12.8
17,Cc1ccc(S(=O)(=O)N2CC=C(C(=O)NC3CCCC3)CC2)cc1,11.7
18,COC(=O)[C@@]1(Cc2ccc(F)cc2)[C@H]2c3cc(C(=O)N(C)C)n(C[C@H](O)CO)c3C[C@H]2CN1C(=O)c1ccccc1,19.6
19,COc1ccccc1N1C(=O)C2C(C(=O)c3ccccc3)=NN(c3ccc(Br)cc3)C2C1=O (stereo not drawn),7.18
20,Cc1cc(C)cc(NC(=O)Oc2ccccc2N2CCCCC2)c1,11.9
21,CCc1nc2sc3ccccc3c(=O)c2c(=O)n1CCOC,4.79
22,COc1ccccc1CNC(=O)c1ccc2c(c1)OCO2,-5.52

row,Compound,"hERG current change (%, negative = inhibition) at 1uM [%]"
1,Cc1ccc(-n2cc(C(=O)c3ccccc3O)cn2)cc1,13.4
2,Cn1ccc(NC(=O)c2ccc([N+](=O)[O-])cc2)n1,11.4
3,CCCCN(CC)C(=O)Cn1ncc2c1-c1cc(C)ccc1OC2,8.35
4,CCS(=O)(=O)N1CCC(C(=O)NCCN2CCN(Cc3ccccc3)CC2)CC1,9.23
5,COc1cc(C(=O)NNC(=S)NC(=O)c2ccc3c(c2)OCO3)cc(OC)c1OC,3.52
6,Cc1cc(C)c(Nc2ncccc2C(=O)O)c(C)c1,11.9
7,Cc1ccc(C(=O)NCCc2ccc(S(N)(=O)=O)cc2)cc1[N+](=O)[O-],7.24
8,CC(=C\c1ccco1)/C=C1/SC(=S)N(CC(=O)O)C1=O,8.87
9,Cc1ccc(NC(=O)CSc2ccc3nnc(CCNC(=O)c4ccccc4)n3n2)c(C)c1,-5.53
10,CC1OC(OC2C(Oc3c(-c4ccc(O)cc4)oc4cc(O)cc(O)c4c3=O)OC(COC3O[C@@H](C)[C@H](O)[C@@H](O)C3O)C(O)C2O)C(O)C(O)C1O (stereo partly drawn),11.5
11,Cc1nn2c(-c3ccccc3)c(-c3ccccc3)nc2[nH]c1=O,12.6
12,CCOc1ccc(C(=O)Nc2ccc3nc(N4CCN(CC)CC4)cc(C)c3c2)cc1,-10.2
13,OCC1(Cc2ccc(Cl)cc2)CCN(Cc2ccc3nsnc3c2)CC1,-6.01
14,CC1CCCC(C)N1C(=O)COC(=O)C(Cc1ccccc1)NC(=O)c1cccs1 (stereo not drawn),11.4
15,Cc1cc2cc(CN(CCCO)S(=O)(=O)c3cccc4nsnc34)c(=O)[nH]c2cc1C,-0.0306
16,COc1ccc(NC(=O)c2ccc(C)cc2)c(OC)c1,-2.85
17,CCOC(=O)c1c(C)nc2sc3c(=O)n(-c4ccc(C)cc4)cnc3c2c1-c1ccc(OC)cc1,13
18,COc1ccc2oc(C)c(C(=O)c3ccc([N+](=O)[O-])cc3)c2c1,11.1
19,CCN(CC)c1ccc(/C=N/N2CCN(c3ccccn3)CC2)cc1,22.6
20,CCN(CC)C(=O)Cn1cc(C(=O)C(=O)NCCc2ccccc2)c2ccccc21,9.27
21,COCc1cc(C)n(CC(=O)NC(C)c2ccccc2)c(=O)c1C#N (stereo not drawn),7.54
22,COc1ccc(N2C(=O)C(O)C2c2ccc(C)cc2)cc1 (stereo not drawn),10.6

row,Compound,"hERG current change (%, negative = inhibition) at 1uM [%]"
1,Cc1ccc(-n2nc(C)cc2NC(=O)COc2cc(C)cc3oc(=O)c4c(c23)CCC4)cc1,10.1
2,O=C(NNS(=O)(=O)c1ccccc1)c1cccc([N+](=O)[O-])c1,9.02
3,CN1CCN(C(=O)CSc2nc(-c3cccs3)ccc2C#N)CC1,11.3
4,Brc1ccccc1Cn1cnc2ccccc21,7.52
5,O=C(N/N=C/c1ccc(-c2cccc([N+](=O)[O-])c2)o1)[C@H]1C[C@@H]1c1ccccc1,3.49
6,COc1ccc(C(=O)C(CN2CCCC2)c2ccccc2)cc1 (stereo not drawn),-2.36
7,COCCn1c(N2CCN(c3ccccc3)CC2)nc2c1c(=O)n(C)c(=O)n2C,3.47
8,CCOc1ccc(NC2C=CS(=O)(=O)C2)cc1 (stereo not drawn),6.09
9,COc1nc(N(C)S(=O)(=O)c2ccc(C)cc2)nc(C)c1Br,16.5
10,NC1=NC(=O)/C(=C\c2cccs2)S1,8.84
11,COc1ccccc1NC(=O)Cn1cnc2c1c(=O)n(C)c(=O)n2C,19.5
12,O=C(/C=C/c1cccc(F)c1)N1CCN(c2ccccn2)CC1,-68.4
13,CC1CCCC(NC(=O)c2cccc(N3CCCC3=O)c2)C1C (stereo not drawn),9.61
14,CN(Cc1ccccc1)C(=O)COC(=O)C1CCN(S(=O)(=O)c2cccs2)CC1,7.57
15,CCCCn1c(=O)c(CC(C)=O)nc2ccccc21,15.9
16,CCCC(c1nnnn1Cc1ccc(F)cc1)N1CCN(CC)CC1 (stereo not drawn),-19.3
17,CCOc1ccc(C(=O)NCC(=O)OCc2ccc(F)cc2Cl)cc1,2.89
18,O=C(NCCN1CCCCC1)Nc1cccc(F)c1,4.49
19,COc1ccc(CC(=O)N(Cc2ccccc2)C(C)C)cc1,4.46
20,Cc1ccc(OCC(=O)Nc2ccc(Cl)cc2)c(-n2nc3ccccc3n2)c1,6.01
21,O=C(NNC(=O)C1CCCC1)c1cc([N+](=O)[O-])cc([N+](=O)[O-])c1,16.3
22,C[N+]1(CC(=O)OCCCC2CCCCC2)CCCC1.[I-],12.7

row,Compound,"hERG current change (%, negative = inhibition) at 1uM [%]"
1,COc1ccc(C(O)(CC(C)C)C(CN2CCOCC2)c2ccccc2)cc1.Cl (stereo not drawn),14.3
2,COc1ccc(CCN(Cc2ccc(C(C)C)cc2)S(=O)(=O)c2ccc(S(=O)(=O)N(C)C)cc2)cc1OC,0.398
3,COC(=O)NC(NC(=S)Nc1ccccc1OC)C(Cl)(Cl)Cl (stereo not drawn),1.75
4,Cc1ccccc1Nc1nc(-c2sc(NC(=O)c3ccc([N+](=O)[O-])cc3)nc2C)cs1,13.9
5,CCCCOC(=O)Nc1cccc(Cl)c1C,-0.362
6,CCOC(=O)Cc1csc(NC(=O)c2ccc3ncsc3c2)n1,2.59
7,O=C(Nc1cccc(F)c1)NC1CCN(Cc2ccccc2)CC1,-7.63
8,O=c1/c(=C/c2ccccn2)sc2n1CN(c1ccccc1)CN=2,9.51
9,Cn1c(-c2ccc3c(c2)OCO3)cnc1NCc1cccc(O)c1.O=C(O)C(=O)O,1.05
10,CC(C)c1cccc(C(C)C)c1NC(=O)c1ccc(OCC(=O)NCc2ccccc2)cc1,-0.595
11,CCN1CCn2c3c(c4cc(C)ccc42)CCCC31 (stereo not drawn),-11.6
12,CC1CN(C(=O)COC(=O)c2ccc(Cl)c(N)c2)CC(C)O1 (stereo not drawn),6.96
13,COc1ccc(CNC(=O)C2CCN(S(=O)(=O)c3cccnc3)CC2)cc1,25.1
14,O=C(COC(=O)c1ccco1)NC1CCCCC1,16.1
15,CC(=O)c1sc(N/N=C\c2cccc(Br)c2)nc1C,2.03
16,CN(C)c1cccc(C(=O)Nc2nnc(Cc3ccccc3)s2)c1,9.59
17,NC(=O)c1c(N)sc2c1CCCC2,-0.156
18,O=C(O)CCC(=O)N1CCc2cc(S(=O)(=O)Nc3ccc4c(c3)OCCO4)ccc21,12.2
19,CCOC(=O)C1CCCN(c2nc3ccccc3nc2C(C#N)C(=O)OCCOC)C1 (stereo not drawn),-2.06
20,COC(=O)c1cn(C(=O)c2ccc(C)cc2C)c2ccccc12,11.4
21,COc1ccc(Br)cc1/C=N/NC(=O)CNC(=O)/C=C/c1ccccc1,10.2
